According to the supplement of paper PMC10037445:
Over roughly 2,900 compounds, “NF-kB SEAP reporter activity, fold change vs agonist alone” has its median near 0.99; the highest 2% begin near 2.6. The list shows a part of the results.

Key:
[1] = test system: RAW-Dual; test: NF-kB SEAP reporter activity, fold change vs agonist alone; cytotoxicity flag (confluency mask): not cytotoxic; higher = enhanced NF-kB activity
Method in brief: (§1)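 RAW-Dual macrophages were seeded in DMEM at 50,000 cells/well in 384-well plates, given 50 nL of library stock by pin tool, and given a PRR agonist 1 h later. Plates were held at 37 °C, 5% CO2 for 20 hours, after which supernatant was read for IRF by QuantiLuc luminescence and for NF-κB by QuantiBlue absorbance at 620 nm. Reporter activity is expressed as fold change over wells that received agonist alone. A well was called cytotoxic when IncuCyte confluency fell below 70% of agonist controls in both mask sets.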

[2] = test system: RAW-Dual; test: NF-kB SEAP reporter activity, fold change vs agonist alone; higher = enhanced NF-kB activity
Method in brief: as §1

[3] = test system: RAW-Dual; test: NF-kB SEAP reporter activity, fold change vs agonist alone; cytotoxicity flag (confluency mask): cytotoxic (confluency <70% of control); higher = enhanced NF-kB activity
Method in brief: as §1

[4] = agonist: ODN 1826 (TLR9) 0.5 ug/mL
[5] = agonist: Pam2CSK4 (TLR2/6) 0.1 ug/mL
[6] = agonist: Pam3CSK4 (TLR2/1) 0.1 ug/mL
[7] = library stock concentration (final ~1000-fold dilution): 10 mM, cytotoxicity flag (confluency mask): not cytotoxic, agonist: Imiquimod (TLR7) […]
[8] = library stock concentration (final ~1000-fold dilution): 10 mM, cytotoxicity flag (confluency mask): not cytotoxic, agonist: MPLA (TLR4) […]

SMILES: COc1cc(N2CCN(C)CC2)ccc1Nc1nccc(-c2cn(C)c3cnccc23)n1 (library stock concentration (final ~1000-fold dilution): 10 mM)
- NF-kB SEAP reporter activity ([1]; agonist: LPS (TLR4) 0.1 ug/mL): 1.02
- NF-kB SEAP reporter activity [1, 4]: 0.192
- NF-kB SEAP reporter activity [1, 5]: 1.14
- NF-kB SEAP reporter activity [1, 6]: 1.44

SMILES: COc1cc(N2CCN(C)CC2)ccc1Nc1nccc(-c2cn(C)c3cnccc23)n1
- NF-kB SEAP reporter activity [2, 7]: 0.285
- NF-kB SEAP reporter activity [2, 8]: 1.58

SMILES: COC12C(COC(N)=O)C3=C(C(=O)C(C)=C(N)C3=O)N1CC1NC12 (centres undefined) (library stock concentration (final ~1000-fold dilution): 10 mM)
- NF-kB SEAP reporter activity ([1]; agonist: LPS (TLR4) 0.1 ug/mL): 2.79
- NF-kB SEAP reporter activity [1, 4]: 2.71
- NF-kB SEAP reporter activity [1, 5]: 1.89
- NF-kB SEAP reporter activity [1, 6]: 3.31

SMILES: COC12C(COC(N)=O)C3=C(C(=O)C(C)=C(N)C3=O)N1CC1NC12 (centres undefined)
- NF-kB SEAP reporter activity [2, 7]: 1.82
- NF-kB SEAP reporter activity [2, 8]: 1.79

SMILES: CN1CCN(CCCN2c3ccccc3Sc3ccc(C(F)(F)F)cc32)CC1.Cl.Cl (library stock concentration (final ~1000-fold dilution): 10 mM)
- NF-kB SEAP reporter activity ([3]; agonist: LPS (TLR4) 0.1 ug/mL): 0.953
- NF-kB SEAP reporter activity [3, 4]: 0.573
- NF-kB SEAP reporter activity [3, 5]: 0.723
- NF-kB SEAP reporter activity [3, 6]: 0.949

SMILES: CN1CCN(CCCN2c3ccccc3Sc3ccc(C(F)(F)F)cc32)CC1.Cl.Cl
- NF-kB SEAP reporter activity ([2]; library stock concentration (final ~1000-fold dilution): 10 mM, cytotoxicity flag (confluency mask): cytotoxic (confluency <70% of control), agonist: Imiquimod (TLR7) […]): 2.02
- NF-kB SEAP reporter activity ([2]; library stock concentration (final ~1000-fold dilution): 10 mM, cytotoxicity flag (confluency mask): cytotoxic (confluency <70% of control), agonist: MPLA (TLR4) […]): 1.44

SMILES: CCOc1cn(-c2ccc(F)cc2C)nc1C(=O)Nc1ccc(Oc2ccnc3cc(OC)c(OC)cc23)c(F)c1
- NF-kB SEAP reporter activity [2, 7]: 0.965
- NF-kB SEAP reporter activity [2, 8]: 0.825

SMILES: CCOc1cn(-c2ccc(F)cc2C)nc1C(=O)Nc1ccc(Oc2ccnc3cc(OC)c(OC)cc23)c(F)c1 (library stock concentration (final ~1000-fold dilution): 10 mM)
- NF-kB SEAP reporter activity ([1]; agonist: LPS (TLR4) 0.1 ug/mL): 0.647
- NF-kB SEAP reporter activity [1, 4]: 0.777
- NF-kB SEAP reporter activity [1, 5]: 0.404
- NF-kB SEAP reporter activity [1, 6]: 0.285

SMILES: CN1c2c(nc(N)[nH]c2=O)NC[C@@H]1CNc1ccc(C(=O)N[C@@H](CCC(=O)O)C(=O)O)cc1
- NF-kB SEAP reporter activity [2, 7]: 0.955
- NF-kB SEAP reporter activity [2, 8]: 0.952

SMILES: CN1c2c(nc(N)[nH]c2=O)NC[C@@H]1CNc1ccc(C(=O)N[C@@H](CCC(=O)O)C(=O)O)cc1 (library stock concentration (final ~1000-fold dilution): 10 mM)
- NF-kB SEAP reporter activity ([1]; agonist: LPS (TLR4) 0.1 ug/mL): 1.18
- NF-kB SEAP reporter activity [1, 4]: 0.91
- NF-kB SEAP reporter activity [1, 5]: 0.69
- NF-kB SEAP reporter activity [1, 6]: 0.862

SMILES: COCc1ccc(-c2ccc3ncc(C(N)=O)c(NC(C)C4CCOCC4)c3c2)cn1 (centres undefined)
- NF-kB SEAP reporter activity [2, 7]: 0.993
- NF-kB SEAP reporter activity [2, 8]: 1.35

SMILES: COCc1ccc(-c2ccc3ncc(C(N)=O)c(NC(C)C4CCOCC4)c3c2)cn1 (centres undefined) (library stock concentration (final ~1000-fold dilution): 10 mM)
- NF-kB SEAP reporter activity ([1]; agonist: LPS (TLR4) 0.1 ug/mL): 1.75
- NF-kB SEAP reporter activity [1, 4]: 1.19
- NF-kB SEAP reporter activity [1, 5]: 1.45
- NF-kB SEAP reporter activity [1, 6]: 2.13

SMILES: O=c1cc(-c2ccc(O)cc2)oc2c(C3OC(CO)C(O)C(O)C3O)c(O)cc(O)c12 (centres undefined) (library stock concentration (final ~1000-fold dilution): 10 mM)
- NF-kB SEAP reporter activity ([1]; agonist: LPS (TLR4) 0.1 ug/mL): 0.978
- NF-kB SEAP reporter activity [1, 4]: 0.919
- NF-kB SEAP reporter activity [1, 5]: 1
- NF-kB SEAP reporter activity [1, 6]: 1.31

SMILES: O=c1cc(-c2ccc(O)cc2)oc2c(C3OC(CO)C(O)C(O)C3O)c(O)cc(O)c12 (centres undefined)
- NF-kB SEAP reporter activity [2, 7]: 0.887
- NF-kB SEAP reporter activity [2, 8]: 0.994

SMILES: CCCC(C)NC(=O)c1ccc(Cl)c(Cl)c1 (centres undefined)
- NF-kB SEAP reporter activity [2, 7]: 1
- NF-kB SEAP reporter activity [2, 8]: 1.21

SMILES: CCCC(C)NC(=O)c1ccc(Cl)c(Cl)c1 (centres undefined) (library stock concentration (final ~1000-fold dilution): 10 mM)
- NF-kB SEAP reporter activity ([1]; agonist: LPS (TLR4) 0.1 ug/mL): 1.37
- NF-kB SEAP reporter activity [1, 4]: 0.982
- NF-kB SEAP reporter activity [1, 5]: 1.07
- NF-kB SEAP reporter activity [1, 6]: 1.21

SMILES: CN(C)c1ccc(O)c2c1CC1CC3C(N(C)C)C(O)=C(C(N)=O)C(=O)C3(O)C(O)=C1C2=O.Cl (centres undefined) (library stock concentration (final ~1000-fold dilution): 2 mM water)
- NF-kB SEAP reporter activity ([1]; agonist: LPS (TLR4) 0.1 ug/mL): 1.09
- NF-kB SEAP reporter activity [1, 4]: 1.17
- NF-kB SEAP reporter activity [1, 5]: 1.11
- NF-kB SEAP reporter activity [1, 6]: 0.922

SMILES: CN(C)c1ccc(O)c2c1CC1CC3C(N(C)C)C(O)=C(C(N)=O)C(=O)C3(O)C(O)=C1C2=O.Cl (centres undefined)
- NF-kB SEAP reporter activity ([2]; library stock concentration (final ~1000-fold dilution): 2 mM water, cytotoxicity flag (confluency mask): not cytotoxic, agonist: Imiquimod (TLR7) […]): 0.904
- NF-kB SEAP reporter activity ([2]; library stock concentration (final ~1000-fold dilution): 2 mM water, cytotoxicity flag (confluency mask): not cytotoxic, agonist: MPLA (TLR4) […]): 1.07

SMILES: COC(=O)c1ccc(O)c(NC(=O)COc2ccc(C34CC5CC(CC(C5)C3)C4)cc2)c1
- NF-kB SEAP reporter activity [2, 7]: 1.1
- NF-kB SEAP reporter activity [2, 8]: 0.981

SMILES: COC(=O)c1ccc(O)c(NC(=O)COc2ccc(C34CC5CC(CC(C5)C3)C4)cc2)c1 (library stock concentration (final ~1000-fold dilution): 10 mM)
- NF-kB SEAP reporter activity ([1]; agonist: LPS (TLR4) 0.1 ug/mL): 0.69
- NF-kB SEAP reporter activity [1, 4]: 1.01
- NF-kB SEAP reporter activity [1, 5]: 0.588
- NF-kB SEAP reporter activity [1, 6]: 0.704

SMILES: Cc1cnc(Nc2ccc(N3CCN(C)CC3)cc2)nc1Nc1cccc(S(=O)(=O)NC(C)(C)C)c1 (library stock concentration (final ~1000-fold dilution): 10 mM)
- NF-kB SEAP reporter activity ([1]; agonist: LPS (TLR4) 0.1 ug/mL): 7

SMILES: CC(C)CCN1c2nc(Nc3cc(F)c(O)c(F)c3)ncc2N(C)C(=O)C1C (centres undefined)
- NF-kB SEAP reporter activity [2, 7]: 2.84
- NF-kB SEAP reporter activity [2, 8]: 2.55

SMILES: CC(C)CCN1c2nc(Nc3cc(F)c(O)c(F)c3)ncc2N(C)C(=O)C1C (centres undefined) (library stock concentration (final ~1000-fold dilution): 10 mM)
- NF-kB SEAP reporter activity ([1]; agonist: LPS (TLR4) 0.1 ug/mL): 4.3
- NF-kB SEAP reporter activity [1, 4]: 2.63
- NF-kB SEAP reporter activity [1, 5]: 1.02
- NF-kB SEAP reporter activity [1, 6]: 2.05

SMILES: O=C1NC(=O)/C(=C/c2ccc(-c3ccc(F)cc3O)o2)S1 (library stock concentration (final ~1000-fold dilution): 10 mM)
- NF-kB SEAP reporter activity ([1]; agonist: LPS (TLR4) 0.1 ug/mL): 0.929
- NF-kB SEAP reporter activity [1, 4]: 0.492
- NF-kB SEAP reporter activity [1, 5]: 0.646
- NF-kB SEAP reporter activity [1, 6]: 0.541

SMILES: O=C1NC(=O)/C(=C/c2ccc(-c3ccc(F)cc3O)o2)S1
- NF-kB SEAP reporter activity [2, 7]: 0.696
- NF-kB SEAP reporter activity [2, 8]: 1.09

SMILES: CCCCCCCCCCCCCCCCCC(=O)O (library stock concentration (final ~1000-fold dilution): 10 mM)
- NF-kB SEAP reporter activity ([1]; agonist: LPS (TLR4) 0.1 ug/mL): 0.849
- NF-kB SEAP reporter activity [1, 4]: 1.02
- NF-kB SEAP reporter activity [1, 5]: 0.95
- NF-kB SEAP reporter activity [1, 6]: 1.17

SMILES: CCCCCCCCCCCCCCCCCC(=O)O
- NF-kB SEAP reporter activity [2, 7]: 0.96
- NF-kB SEAP reporter activity [2, 8]: 1.05
